Publication PMC4336329 (PLoS ONE, 2015)
The campaign covered roughly 310,000 compounds. About 14,000 (4.5%) showed an effect of 50% or more. Effects have a minus sign here. The list shows a part of the results.

Target: human ether-à-go-go-related gene (hERG) potassium channel (human, UniProt Q12809)
Assay: primary screen, population patch clamp on CHO cells stably expressing hERG
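Note: peak tail current of the secondary pulse compared with the same well before compound.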

human ether-à-go-go-related gene (hERG) potassium channel, sequence (Q12809 whole entry, looked up): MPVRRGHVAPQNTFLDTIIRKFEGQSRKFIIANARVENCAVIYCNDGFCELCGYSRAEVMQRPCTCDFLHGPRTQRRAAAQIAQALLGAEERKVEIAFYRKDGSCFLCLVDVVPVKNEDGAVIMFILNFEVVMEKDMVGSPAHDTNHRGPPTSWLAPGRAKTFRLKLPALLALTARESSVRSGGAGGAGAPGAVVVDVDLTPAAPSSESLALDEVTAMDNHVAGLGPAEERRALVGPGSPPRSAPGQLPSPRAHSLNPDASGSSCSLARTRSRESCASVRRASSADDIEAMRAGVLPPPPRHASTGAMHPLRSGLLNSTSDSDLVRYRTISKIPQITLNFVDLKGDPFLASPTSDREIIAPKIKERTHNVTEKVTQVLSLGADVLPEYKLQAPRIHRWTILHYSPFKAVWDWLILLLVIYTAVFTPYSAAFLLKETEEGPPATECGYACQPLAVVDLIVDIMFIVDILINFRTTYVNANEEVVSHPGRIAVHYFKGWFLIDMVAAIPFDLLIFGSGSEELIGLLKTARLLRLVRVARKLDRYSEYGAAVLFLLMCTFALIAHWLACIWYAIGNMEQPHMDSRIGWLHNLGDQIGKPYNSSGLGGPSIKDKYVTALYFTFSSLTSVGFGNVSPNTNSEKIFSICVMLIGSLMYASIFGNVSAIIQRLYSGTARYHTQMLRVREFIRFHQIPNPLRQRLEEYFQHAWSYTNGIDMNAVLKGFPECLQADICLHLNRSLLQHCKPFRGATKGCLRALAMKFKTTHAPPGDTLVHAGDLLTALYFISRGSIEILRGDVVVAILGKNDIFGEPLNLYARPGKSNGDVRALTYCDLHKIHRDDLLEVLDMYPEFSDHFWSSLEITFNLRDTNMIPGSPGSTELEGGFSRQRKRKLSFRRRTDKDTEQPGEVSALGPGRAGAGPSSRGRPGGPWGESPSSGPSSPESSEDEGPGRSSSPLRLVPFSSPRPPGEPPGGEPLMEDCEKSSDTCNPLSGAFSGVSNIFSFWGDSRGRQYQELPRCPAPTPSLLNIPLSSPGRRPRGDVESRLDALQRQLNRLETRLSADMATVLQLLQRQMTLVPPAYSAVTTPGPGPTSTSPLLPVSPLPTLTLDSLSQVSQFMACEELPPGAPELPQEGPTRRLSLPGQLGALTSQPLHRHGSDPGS

SMILES | hERG current change (%, negative = inhibition) at 10uM
O=C(COC(=O)c1ccccc1)NC1CCCC1 | 5.12%
NC(=O)c1ccc(N2CCC(C(N)=O)CC2)c([N+](=O)[O-])c1 | 1.16%
CC(C)c1ccc(C(C(=O)NC(C)(C)C)N(C(=O)CNC(=O)c2ccco2)c2cccnc2)cc1 (stereo not drawn) | 9.33%
CC(=O)NN1C(=O)/C(=C\c2ccc(Br)o2)SC1=S | -0.448%
CCC(C)NC(=O)C(=O)NCc1ccccn1 (stereo not drawn) | 14.6%
COc1ccc(-c2n[nH]c(=S)n2Cc2ccccc2)cc1OC | -11.6%
O=C(CCn1c(=O)[nH]c2ccsc2c1=O)N1CCN(c2ccc([N+](=O)[O-])cc2)CC1 | -35.2%
COc1cc(S(=O)(=O)N2CCN=C2c2ccccc2)c(OC)cc1Cl | 11.6%
CNc1c2c(nn1C)CCCC2 | 27.1%
CCCS(=O)(=O)c1c(S(=O)(=O)CCC)c2c(N)cccn2c1C(=O)c1ccc(Br)cc1 | -4.52%
CCn1c(SCC(=O)Nc2ccc3c(c2)oc2ccccc23)nnc1-c1ccc(N)cc1 | -3.26%
COc1cc(NC(=O)c2cccs2)c(OC)cc1NC(=O)CCn1nnc2ccccc21 | -42.7%
C/C(CCc1ccc2c(c1)OCO2)=N\N=C1\NC(=O)CC(C(=O)Nc2ccccc2F)S1 (stereo not drawn) | 3.99%
COc1ccc(NC(=O)Nc2ccc(F)cc2F)cc1 | 11.9%
O=C(NCc1cccnc1)c1ccc(COc2cccc3ccccc23)o1 | -11.6%
Cc1nnc(SCC(=O)c2ccccc2F)n1Cc1ccccc1 | -2.85%
CCOc1cccc(NC(=O)c2ccc(S(=O)(=O)N3CCCC3)cc2)c1 | -12.1%
COc1ccc2c(C)cc(N3CCN(c4ccc(F)cc4)CC3)nc2c1 | -25.7%
COc1cc(C(=O)OCC(=O)Nc2ccc(N3CCOCC3)cc2)ccc1OCC(C)C | -4.48%
COC(=O)CCCC1=CC2=CC(=O)C(C)(OC(=O)c3cccs3)C(=O)C2=CN1Cc1ccc2c(c1)OCO2 (stereo not drawn) | -7.74%
Cc1ccc(/C=C2\SC(N3CCCCC3)=NC2=O)cc1 | 0.193%
Cc1c2c(nc3ccccc13)CCC(C)C2.Cl (stereo not drawn) | -43.1%

SMILES | hERG current change (%, negative = inhibition) at 10uM
O=C(c1cccnc1)N1N=C(C2CCCCC2)CC1(O)C(F)(F)F (stereo not drawn) | -0.742%
Brc1ccccc1C1N=C(c2ccccc2)NO1 (stereo not drawn) | -6.1%
COc1ccc(-c2csc3ncnc(NCCCO)c23)cc1 | -13.3%
O=C(Nc1ccccc1)C1C2CCC3C(CCC21)C3(Cl)Cl (stereo not drawn) | 12.2%
O=C(CSc1nnc(-c2cccnc2)o1)Nc1ccccc1Br | 10.5%
C#Cc1ccc([C@@H]2C=C(C(=O)NCc3ccccc3)O[C@H](OCc3ccc(CO)cc3)C2)cc1 | 6.15%
O=S(=O)(NCC1(N2CCOCC2)CCCCC1)c1ccc(F)cc1 | -5.62%
CC(=O)c1ccc(NC(=O)[C@@H]2CCCN2C(=O)OC(C)(C)C)cc1 | 15.7%
Cn1c(N)c(C(=O)COC(=O)CC(NC(=O)c2ccccc2Cl)c2ccccc2)c(=O)n(C)c1=O (stereo not drawn) | -38.1%
O=C(CSc1nc2c(c(=O)n1-c1ccc(F)cc1)SCC2)NCc1ccco1 | -17.9%
CCOC(=O)c1[nH]c(C)c(C(=O)OCc2ccccc2F)c1C | 14%
COc1ccc(NS(=O)(=O)c2cccc(C(=O)NNC(=O)c3cc(C)oc3C)c2)cc1 | 11%
CC(=O)N1CCOc2ccc(S(=O)(=O)NCc3ccc(Cl)cc3)cc21 | -19.6%
CCN(CC)S(=O)(=O)c1cccc(C(=O)N/N=C(\C)c2cccs2)c1 | 17.3%
Cc1cc(NC(=O)CCN2CCN(Cc3ccccc3)CC2)ccc1Br.Cl | -28%
Cl.OC(COCc1ccc2c(c1)OCO2)CN1CCCCC1 (stereo not drawn) | -2.96%
Cc1ccc(NC(=O)CSc2ccc(Br)cc2)cc1S(=O)(=O)N1CCOCC1 | -30.9%
COCCn1c(SCC(=O)Nc2ccc(F)cc2F)nc2c([nH]c3ccccc32)c1=O | 8.08%
O=C(CN1CCN(c2nc(-c3ccccc3)cs2)CC1)NNC(=O)c1ccco1 | 0.128%
N#CCCOC1(C#CCN2CCCC2)CCCCC1 | 19.6%
Cc1ccc(C(=O)c2coc3ccc(O)c(CN4CCN(C)CC4)c23)cc1 | -51.2%
CS(=O)(=O)N1CCN(c2ccccc2NC(=O)c2cccc3ccccc23)CC1 | -29.6%

SMILES | hERG current change (%, negative = inhibition) at 10uM
COC(=O)Oc1ccc(/C=N/NS(=O)(=O)c2ccccc2)cc1OC | 21.2%
O=C(CSc1nc2ccccc2o1)N/N=C/c1ccco1 | -3.55%
COC(=O)[C@@H]1C[C@@]2(O)[C@H](O)[C@H](O)[C@H](O)C[C@H]2N1Cc1cccc2ccccc12 | 16%
O=C(COc1ccccc1[N+](=O)[O-])N/N=C/c1ccc(OC(=O)c2ccco2)cc1 | 0.35%
CCOc1ccc(Cn2c(=O)sc3ccccc32)cc1 | 12.6%
CC12CCC(C1)C(C)(C)C2OC(=O)c1ccccc1C(=O)O (stereo not drawn) | 18.3%
COc1cccc(N(C(=O)Cn2nnc(-c3ccc(Cl)cc3)n2)C(C(=O)NCC2CCCO2)c2ccc(C)cc2)c1 (stereo not drawn) | 22%
O=C(O)c1cc(-n2nnnc2SCc2ccc([N+](=O)[O-])cc2)ccc1Cl | 12.3%
Cc1ccc(Cl)cc1NC(=O)CNC(=O)N1CC(=O)Nc2ccccc21 | -5.91%
COc1ccc(NC(=O)Cn2c(=O)cnc3ccccc32)cc1S(=O)(=O)N1CCCCC1 | -10.9%
CCOC(=O)CSc1nc2ccccc2c(=O)n1CC1CCCO1 (stereo not drawn) | -6.58%
O=C1CC(c2ccc3c(c2)OCCO3)Oc2ccc([N+](=O)[O-])cc21 (stereo not drawn) | -1.11%
Cc1cc2nc(/C=C/c3nc4cc(C)c(C)cc4[nH]3)[nH]c2cc1C | 25.9%
CCN(CC)CCN1C(=O)C(=O)/C(=C(/O)c2ccc(S(=O)(=O)N3CCOCC3)cc2)C1c1ccc(C)cc1 (stereo not drawn) | 18%
COCCN(Cc1cc2cc(C)ccc2n2nnnc12)C(=S)Nc1ccc(C)cc1 | -6.18%
CC(C)(C)NC(=O)CSC(=Nc1cccc(F)c1)NC#N | 8.94%
COc1ccc(OC)c(NC(=S)NCc2ccco2)c1 | -3.95%
CCN(CC)c1ccc2nc3ccccc3[n+](CC)c2c1.[I-] | -24.7%
CCO[C@H]1OC(C(=O)NCc2ccccc2)=C[C@@H](c2ccc(Br)cc2)[C@@H]1CCCO | -26.2%
O=C(CSc1nnc(-c2ccccc2Cl)o1)Nc1ccc2c(c1)OCCO2 | -5.63%
CC(=O)c1c(O)cc(C)oc1=O | 25.5%
CCCCN1CCNC[C@@H]1c1ccccc1 | 19%

SMILES | hERG current change (%, negative = inhibition) at 10uM
CN1/C(=C\C=Nc2ccc3ccccc3c2)C(C)(C)c2ccccc21 | -74.8%
COc1cc(CCN2C(=O)c3cccc4cccc(c34)C2=O)c(S(=O)(=O)N2CCC(C)CC2)cc1OC | -24.6%
CCOc1ccc(NC(=O)c2oc3ccccc3c2NC(=O)CC)cc1 | -20.6%
CN(C)/C=C/C(=O)c1cnc(-c2ccccc2Cl)s1 | -35.8%
CC(c1ccccc1)n1c(S(=O)(=O)O)nc2ccccc21 (stereo not drawn) | 11.1%
CCCc1noc2c1C(c1cc(Br)ccc1F)C(C#N)=C(N)N2 (stereo not drawn) | 12%
COc1ccc(CCNC(=O)COC(=O)c2cc(OC)c(OC)cc2OC)cc1OC | 2.88%
COc1ccc(Cn2c(=O)[nH]c3cc(C(=O)N4CCN(c5ccc(OC)cc5)CC4)ccc3c2=O)cc1 | 10.1%
COc1ccc(C(NC(C)=O)c2cc(Cl)c3cccnc3c2O)cc1 (stereo not drawn) | 10.6%
CCCCn1nnc(NC(=O)c2ccc(-c3cccc([N+](=O)[O-])c3)o2)n1 | -68.5%
COc1cc2c(cc1OC)C(c1cccc(Cl)c1Cl)CC(=O)N2 (stereo not drawn) | 11.6%
CC1=C(C#N)C(=O)OC(C)(C)C1 | 14.3%
CCOC(=O)c1sc2nccc(OC)c2c1N=CN(C)C | 10.2%
COc1ccc(-c2noc3c2-c2nc(-c4ccc(C)cc4)sc2CC3)cc1 | 20.2%
COc1cccc(CN(C)C(=O)C2CCN(S(=O)(=O)c3ccc(C)cc3)CC2)c1OC | -13%
CN(C)c1ncnc(N(C)C)c1[N+](=O)[O-] | 7.45%
CC(=O)c1c(C)[nH]c(C(=O)CSc2nnc3ccccn23)c1C | -3.82%
CCCc1cc(=O)[nH]c(SC(C)C(=O)Nc2ccc3c(c2)OCCO3)n1 (stereo not drawn) | -7.38%
CC(Cc1cccs1)NCc1ccc(Cl)cc1 (stereo not drawn) | -15.7%
COc1cc(/C=C2/C(=O)NN(c3cccc(F)c3)C2=O)ccc1OC(=O)c1ccco1 | -32.5%
CC(C)CNC(=S)N1CCN(Cc2ccc3c(c2)OCO3)CC1.O=C(O)C(=O)O | -29.3%
